From PubChem BioAssay AID1645887 (National Center for Advancing Translational Sciences (NCATS), 2021) come the findings set out here.

SMILES strings stand for the structures. Values joined by “and” are separate entries in the source; they are usually repeats but may differ in a detail not shown here. Equal entries are not always repeated. Among all 16,000 compounds or so, about 40 (0.2%) were called active. Inconclusive results (about 1%) are left out. Calls come from the whole dose curve; as a rule, active = well fitted activation curve with a large enough effect; inconclusive = small, poorly fitted or top-dose-only effect, or another doubt; inactive = no such curve, though single readings can be large or run the other way. The list shows a part of the results.
% is set by controls: 0 for no effect and ±100 for the full control effect.

The target of this experiment is Rap guanine nucleotide exchange factor 4 (Homo sapiens) (UniProt Q8WZA2). In words: Validation qHTS for agonist of cAMP-regulated guanine nucleotide exchange factor 4 (EPAC2).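 Note: exchange makes BODIPY-GDP fluorescence drop when released from Rap1B; series mostly up to about 150 µM.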 Conditions: EPAC2 Rap1B BODIPY-GDP exchange, fluorescence; activation: active compounds read high. A digest of the protocol: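 Signal normalized against 6.5 mM cAMP as agonist control. Mix of EPAC2 (100 nM), RAP1B-BODIPY-GDP (250 nM) and GDP (50 uM) was read kinetically at 480/540 nm, every 5 min over 30 min, after 5 min room-temperature incubation with compound.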
UniProt Q8WZA2, sequence (Q8WZA2 whole entry, looked up): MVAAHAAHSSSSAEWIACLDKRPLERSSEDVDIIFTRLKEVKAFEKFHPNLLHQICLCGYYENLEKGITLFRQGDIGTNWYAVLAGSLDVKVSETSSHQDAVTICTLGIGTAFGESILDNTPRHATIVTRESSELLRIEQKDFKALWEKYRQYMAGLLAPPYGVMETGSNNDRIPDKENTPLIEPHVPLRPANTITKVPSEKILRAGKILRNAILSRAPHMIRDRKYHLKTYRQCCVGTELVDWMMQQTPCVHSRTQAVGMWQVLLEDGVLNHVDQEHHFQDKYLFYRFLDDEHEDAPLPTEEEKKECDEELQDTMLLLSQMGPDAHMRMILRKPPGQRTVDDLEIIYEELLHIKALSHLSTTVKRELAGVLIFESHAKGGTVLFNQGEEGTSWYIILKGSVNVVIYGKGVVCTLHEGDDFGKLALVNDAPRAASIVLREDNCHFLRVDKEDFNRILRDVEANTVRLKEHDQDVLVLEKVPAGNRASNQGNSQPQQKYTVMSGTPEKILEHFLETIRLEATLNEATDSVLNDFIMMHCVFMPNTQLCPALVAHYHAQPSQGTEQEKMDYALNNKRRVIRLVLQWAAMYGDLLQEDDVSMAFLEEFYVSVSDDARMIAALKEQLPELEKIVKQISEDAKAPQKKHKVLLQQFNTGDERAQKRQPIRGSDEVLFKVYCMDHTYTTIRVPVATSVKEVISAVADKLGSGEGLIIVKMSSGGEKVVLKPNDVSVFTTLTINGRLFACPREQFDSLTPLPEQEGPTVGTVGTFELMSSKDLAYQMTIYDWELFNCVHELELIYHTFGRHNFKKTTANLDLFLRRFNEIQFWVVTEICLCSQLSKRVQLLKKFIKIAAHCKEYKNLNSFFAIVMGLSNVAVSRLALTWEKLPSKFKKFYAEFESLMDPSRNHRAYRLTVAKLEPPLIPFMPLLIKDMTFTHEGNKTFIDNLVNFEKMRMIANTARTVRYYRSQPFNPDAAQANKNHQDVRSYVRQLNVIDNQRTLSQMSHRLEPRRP
For orientation: qHTS replaces the single test concentration by a dilution series.
As to `COCCOC(=O)C1=C(C)NC(C)=C(C(=O)OC/C=C/c2ccccc2)C1c1cccc([N+](=O)[O-])c1` (stereo not given), the activation was inactive: 8.75%. To `Cc1cccc(CNc2cc(-c3cccnc3)ncn2)c1` belongs inactive: -2.74%; to `O=c1cnc2cnc(Oc3ccccc3)nc2n1Cc1cccs1`, inactive: -19.1%; to `CC1CC(O)CC(C)(C)C1` (stereo not given), inactive: -2.44%.

`CCC(C)[C@H]1O[C@]2(C=C[C@@H]1C)C[C@@H]1C[C@@H](C/C=C(\C)[C@@H](O[C@H]3C[C@H](OC)[C@@H](O[C@H]4C[C@H](OC)[C@H](NC(C)=O)[C@H](C)O4)[C@H](C)O3)[C@@H](C)/C=C/C=C3\CO[C@@H]4[C@H](O)C(C)=C[C@@H](C(=O)O1)[C@]34O)O2` (stereo not given in full): the activation is inactive: -31.3% and inactive: -11.7%. For the molecule `CC(C)=CCC/C(C)=C/CC/C(C)=C/CC/C(C)=C/CC/C(C)=C/CC/C(C)=C/CC/C(C)=C/CC/C(C)=C/CC/C(C)=C/CO`, the activation is inactive: -1.09%.

As to `FC(F)(F)C(F)(F)C(F)(F)C(F)(F)C(F)(F)F`, the activation is inactive: -4.39%. As for `O=S1(=O)OC(c2ccc(O)cc2)(c2ccc(O)cc2)c2ccccc21`, the figure is inactive: 7.44%; as for `Cn1cccc1C(=O)N1CCC2(CC1)CN(c1ccncc1)C2`, inactive: 4.47%; as for `CN(C)c1ncc2nc(-c3ccc(Cl)cc3)c(=O)n(Cc3cccs3)c2n1`, inactive: -11.6%. To `CN1CCN(c2ccnc(-c3ccc(N(C)C)cc3)n2)CC1` belongs inactive: -11.2%; to `O=c1cc(O)c(Cl)c[nH]1`, inactive: -1.05%. As to `c1ccc(OCc2ccc(CCCN3CCOCC3)cc2)cc1`, the activation was inactive: 7.43%.

As to `O=C(c1ccc(Cn2cnnn2)cc1)N1CCOc2ccc(C(O)C3CCCCC3)cc2C1` (stereo not given), the activation is inactive: -33.6%. For the molecule `CC(C)=CCCC1=CC[C@H](C(=O)O)[C@H](C(=O)O)C1`, the activation is inactive: -35.5%.

For `O=C(NCCc1nnc2n1CCN(Cc1ccc3c(c1)CCO3)CC2)c1ccco1`, the activation is inactive: 1.41%. Take `COc1ccc(OC)c(-c2cc(Cl)c3c(c2)CC(CNC(=O)/C=C/c2ccccn2)O3)c1` (stereo not given): the activation was inactive: -0.538%.

`CN1CCN(c2ccnc(-c3cccnc3)n2)CC1`: the activation is inactive: -6.76%. To `CS(=O)(=O)N1CCC[C@@]2(CCN(c3ccccc3)C2)C1` belongs inactive: -6.24%. As for `CN(C)c1ccc(/C=C/c2ccnc3ccc4ccccc4c23)cc1`, the activation is inactive: 8.22%. Regarding `CN(C)c1ccc(CCC2C=Cc3ccccc32)cc1` (stereo not given), the activation was inactive: -22.4%. To `Cc1cc(C)c(/C=C2\C(=O)Nc3ccccc32)[nH]1` belongs inactive: 0.966% and inactive: -438%; to `CN/C(=C\[N+](=O)[O-])NCCSCc1csc(CN(C)C)n1`, inactive: -3.95%; to `O=C(NOC[C@H](O)CO)c1ccc(F)c(F)c1Nc1ccc(I)cc1F`, inactive: -10.6%. `COc1ccc(-n2c(=O)c(-c3ccc(Cl)cc3)nc3cnc(N4CCNCC4)nc32)cc1`: the activation is inactive: 7.69%. As for `Cc1cnc(SCc2ccccn2)nc1C1CCCN(C(=O)c2cc3ccccc3oc2=O)C1` (stereo not given), the activation was inactive: 2.25%.

As for `COc1ccc(OC)c(CN2CCCC(c3nc(C)ncc3-c3ccc(F)cc3)C2)c1` (stereo not given), the activation is inactive: -6.7%. On to `O=C1CC2(CCCC2)CC(=O)N1CCCCN1CCN(c2ncccn2)CC1`, for which the activation was inactive: -6.84% and inactive: 10.2% and inactive: -1.09%. As for `CCCC(=O)NCCc1c2n(c3ccc(OC)cc13)CCCc1ccccc1-2`, the figure is inactive: -31.7%. To `COc1ccc(N2CCN(C(=O)c3cc(NC(C)=O)c4c(c3)ncn4CCc3ccccn3)CC2)cc1` belongs inactive: 6.07%; to `COc1ccccc1CN1[C@@H](CC(=O)O)c2ccccc2S1(=O)=O`, inactive: -19.4%.

Take `Cc1cc2c(cc1Cl)N(C(=O)Nc1ccnc3ccccc13)CC2`: the activation is inactive: -31.4%. On to `C=CC[N+]1([C@H]2C[C@H]3[C@@H]4CC[C@H]5C[C@H](OC(C)=O)[C@@H](N6CCCCC6)C[C@]5(C)[C@H]4CC[C@]3(C)[C@H]2OC(=O)CC)CCCCC1`, for which the activation is inactive: -13.9%. To `Cc1cn(C2CCC(CO)O2)c(=O)[nH]c1=O` (stereo not given) belongs inactive: -2.95%; to `c1ccc2c(NCCN3CCOCC3)nc(-c3ccc4c(c3)OCO4)nc2c1`, inactive: -11.8%; to `CCCS(=O)(=O)NCc1c(C)ncc2c1CCN(C(=O)c1cccc(-c3ccccc3F)c1)C2`, inactive: 12.4%. As for `O=c1cc(-c2ccccc2O)oc2c1ccc1ccccc12`, the figure is inactive: 3.37%. `CC(=O)NCCNc1ncncc1-c1ccc(N(C)C)cc1`: the activation is inactive: -17.1%.

Regarding `COc1cc2c(Cc3c4c5c(cc(OC)c(OC)c5c5c(OC)c(OC)ccc35)CCN4C)c3c4c(cc(OC)c(OC)c4c2cc1OC)CCN3C`, the activation is inactive: 5.77%.

As to `Cc1ccc(CNc2ncnc3sc(C(=O)N4CCCC(C(N)=O)C4)c(C)c23)o1` (stereo not given), the activation is inactive: -7.73%. To `COc1ccc(-c2nc3cnc(N4CCNCC4)nc3n(-c3ccc(OC)cc3)c2=O)cc1` belongs inactive: -4.17%; to `O=C1c2ccccc2C(=O)c2c(O)ccc(O)c21`, inactive: 15.3%; to `CC(=O)Oc1c2c(c3c(c1CC=C(C)C)O[C@@]14C(=CC5CC1C(C)(C)OC4(C/C=C(\C)C(=O)O)C5=O)C3=O)OC(C)(CCC=C(C)C)C=C2` (stereo not given in full), inactive: -51.4%.

As to `CCC(C(=O)OCCN(CC)CC)c1ccccc1` (stereo not given), the activation was inactive: -10%. As for `CCn1cc(C(=O)O)c(=O)c2cc3c(cc21)OCO3`, the figure is inactive: -8.05% and inactive: -34.5%; as for `COC(=O)Nc1nc2ccc(S(=O)c3ccccc3)cc2[nH]1` (stereo not given), inactive: -9.71% and inactive: 10.6%. For `COc1ccc(SC[C@H](Cc2ccccc2)N2CC[C@@H](C)CCC2=O)cc1`, the activation is inactive: -9.57%. As for `CC(C)=CCC/C(C)=C/CO`, the activation was inactive: -13.8% and inactive: 5.47%. To `COc1cccc(C(=O)NCc2nc(-c3cccc(NC(=O)c4ccoc4C)c3)oc2C)c1` belongs inactive: 11.2%; to `O=C(NCc1ccccn1)c1cnn(-c2nccc(-c3ccccc3F)n2)c1C1CC1`, inactive: -4.72%. For the molecule `Cc1cccc2cc(CNCCCN3CCCC3=O)c(N3CCN4CCCC4C3)nc12` (stereo not given), the activation was inactive: 0.369%. To `COc1ccc(-n2c(=O)c(C)nc3cnc(N4CCOCC4)nc32)cc1` belongs inactive: -3.21%; to `CN(C)c1ccc(-c2ccc3ncnc(-n4ccnc4)c3c2)cc1`, inactive: -4.53%; to `Cc1cnc(-n2ncc(C(=O)N(C)C3CCOC3)c2C)nc1-c1ccc(F)cc1` (stereo not given), inactive: -1.27%. To `COc1cc(=O)n2c(c1C(=O)N(C)Cc1nccs1)CCN(Cc1cc3ccccc3s1)CC2` belongs inactive: -0.561%; to `O=c1cc(-c2cccc(O)c2)oc2cc(O)ccc12`, inactive: -4.12%; to `CCn1ccnc1CC1COc2ccccc2O1` (stereo not given), inactive: -11.9% and inactive: -23.9%. As for `CC(=O)N1CCN(C(=O)c2sc3ncnc(NCC4CCCO4)c3c2C)CC1` (stereo not given), the figure is inactive: 7.3%; as for `Cc1c(C(=O)N2CCCCC2c2cccnc2)sc2ncnc(NCc3cccs3)c12` (stereo not given), inactive: -4.03%; as for `Nc1nc2c(nc(Br)n2C2CC(O)C(CO)O2)c(=O)[nH]1` (stereo not given), inactive: -1.52%. For `Cc1cnc(C)c(-c2ccc(F)c3c2OC(CNC(=O)Cc2c(F)cccc2F)C3)n1` (stereo not given), the activation is inactive: -15.7%. In the case of `CCOC(=O)C12CC1/C(=N/O)c1ccccc1O2` (stereo not given), the activation was inactive: -42.8%. To `CCC1CN(CCC(=O)N2CCN(c3ncccn3)CC2)Cc2cc(OC)ccc2O1` (stereo not given) belongs inactive: -19.6%; to `Cc1cc2ccccc2c[n+]1CC(=O)c1ccc(F)cc1`, inactive: -20.7%. To `Cc1ccc(SC[C@H](Cc2ccccc2)N2CC[C@@H](C)CCC2=O)cc1` belongs inactive: -29.6%; to `NC(=O)C1CCCN(Cc2ccc3c(c2)CN(Cc2cn[nH]c2-c2ccc(F)cc2)CCO3)C1` (stereo not given), inactive: 4.97%; to `Nc1ccn([C@@H]2O[C@H](CO)[C@H](O)C2(F)F)c(=O)n1`, inactive: 7.07%. For the molecule `COC(=O)C[C@H]1c2cc(F)ccc2S(=O)(=O)N1Cc1ccccc1`, the activation is inactive: -4.73%. For `C[C@@H]1C[C@H]2[C@@H]3C[C@H](F)C4=CC(=O)C(Cl)=C[C@]4(C)[C@@]3(F)[C@@H](O)C[C@]2(C)[C@@]1(O)C(=O)CO`, the activation was inactive: -18%. For the molecule `O=C(c1csnn1)N1CCC2(CC1)CN(Cc1cc(C(F)(F)F)cc(C(F)(F)F)c1)C2`, the activation is inactive: -9.1%. As for `CO[C@H]1C[C@@H]2CC[C@@H](C)[C@@](O)(O2)C(=O)C(=O)N2CCCC[C@H]2C(=O)O[C@H](C(C)C[C@H]2CC[C@@H](O)[C@H](OC)C2)CC(=O)[C@H](C)/C=C(\C)[C@@H](O)[C@@H](OC)C(=O)[C@H](C)C[C@H](C)/C=C/C=C/C=C/1C` (stereo not given in full), the figure is inactive: -21%; as for `C=CCN1CCc2c(cc(O)c(O)c2Br)[C@@H](c2ccccc2)C1`, inactive: -9.01% and inactive: -23.9%; as for `Nc1nc(NCCc2ccc(O)cc2)nc2nc(-c3ccco3)nn12`, inactive: -11.7% and inactive: -19.9%. As for `CCCCCCCCCCCC(=O)N(CCO)CCO`, the figure is inactive: -40%. `CC1(C)C(O)C=C[C@@]2(C)C1CC(=O)O[C@@]1(C)C3=CC(=O)OC(c4ccoc4)[C@]3(C)CCC21` (stereo not given in full): the activation is inactive: -21.2%. To `COc1cc(OC)c(OC)cc1CN1CCOc2ccc(CN3C[C@@H](C)O[C@@H](C)C3)cc2C1` belongs inactive: -10.3%. For `COC(=O)c1ccc(O)cc1`, the activation is inactive: -14.6%. `FC(F)(F)c1ccccc1-c1cncnc1Nc1ccccc1`: the activation was inactive: -9.03%. As for `COc1c(-c2ccc(O)c(O)c2)oc2cc(O)cc(O)c2c1=O`, the figure is inactive: 0.58%; as for `COc1ccc(Oc2ncc3nc(-c4ccc(OC)cc4)c(=O)n(CCC#N)c3n2)cc1`, inactive: -4.27%.
